Sequences and labels used below:
B1: TPR 5TU (parent)
chain: GGAUCUUCUCGAUCUAACAAAAAAGACAAAUCUGCCACAAAGCUUGAGAGCAUCUUCGGAUGCAGAGGCGGCAGCCUUCGGUGGCGCGAUAGCGCCAACGUUCUCAACUAUGACACGCAAAACGCGUGCUCCGUUGAAUGGAGUUUAUCAUG

Variants at the background level are over-represented here.

Here are results for 19 variants from the RNAGym collection of RNA variant scans (doi:10.1073/pnas.2313332121).

Variants of B1 are the subject of the data set. The data set is described as follows: polymerase ribozyme fitness, log enrichment relative to wild type (log ratio); higher = more active; in vitro selection for triplet polymerase activity. The method in brief: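 One round of in vitro selection, in triplicate, was applied to PCR-built, transcribed mutant libraries of each subunit of a heterodimeric triplet polymerase ribozyme. The steps were annealing with a biotinylated primer, partner subunit and triplets, incubation frozen at −7 °C, gel excision of extended constructs, streptavidin-bead capture and RT-PCR. Fitness is the logarithm, base 2, of genotype enrichment over wild-type enrichment from inverse-variance-weighted replicate averages of Illumina-sequenced inputs and outputs, keeping genotypes with ≥10 input reads and ≥1 read per output.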
For the variant GGAUCUUCUCGAUCUAACAAAAAAGACAAAUCUUCCACAAAGCUUGAGAGCAUCUACGGAUGCAGAGGAGGCAGCCUUCGGUGGCACGAUAGCGCCAACGUUCUCAAUUAUGACACGCAAAACGCGUGCUCCGUUGAAUGAAGUUAAUCAUG [G34U U56A C69A G86A C108U G141A U146A], the “polymerase ribozyme fitness (log ratio)” value was at most -4.2. Then GGAUCUUCUCGAUCUAACAAAAAAGACAAAUCUUCCACAAAGCUUGAGAGCAUCUUCGGAUGCAGAGGCGGCAGCCUUCGGUGGCGCGAUAGCGGCAACGUUCUCAACUAUGACACGCAAAACACGUGCUCCGUUGAAAGGAGUUUAUCAUG [G34U C95G G124A U139A], with at most -4.2.

Turning to GGAUCUUCUCGAUCUAACAAAAAAGACAAAUCUGGCACAAAGCUUGAGAGCAUCUUCGGAUGCAGAGGAGGCAGCCUGCGGUGGCGCGAUGGCGCCAACGUUCUCAACUAUGACACGCAAAACGCGUGCUCCGUUGAAUGGAGUUUAUCAUG [C35G C69A U78G A91G], the “polymerase ribozyme fitness (log ratio)” value is at most -4.2.

With GGAUCUUCUCGAUCUAACAAAAAAGACAAAUCUGGCACAAAGCUUGCGACCAUCUUCGGAUGCAGAGGCGGCAGCCUUCGGUGGCGCGAUAGCGCCAAAGUUCUCAACUAUGACACGCAAAACGCGUGCUCCGUUGAAUGGAGUUUAUCACG [C35G A47C G50C C99A U151C], the “polymerase ribozyme fitness (log ratio)” value is at most -4.2.

For GGAUCUUCUCGAUCUAACAAAAAAGACAAAUCUGACACAAAGCUUGAGAGCAUCUUCGGAUGCAGAGUCGGCAGCGUUCGGUGGCGCGAUAGCGCCAACGUUCUCCACUAUGACACGCAAAACGCGUGCUCCGUUGAAUGGAGUUUAUCAUG [C35A G68U C76G A106C], the “polymerase ribozyme fitness (log ratio)” value was at most -4.2. As for GGAUCUUCUCGAUCUAACAAAAAAGACAAAUCUGGCACAAAGCUUGCGAGCAUCGUCGGAUGCAGAGGGGGCUGCCUUCGGUGGCGCGAUGGCGCCAACGUUCUCAACUAAGACACCCAAAACGCGUGCUCCGUUGAAUGGCGUUUAUCAUG [C35G A47C U55G C69G A73U A91G U111A G117C A142C], the “polymerase ribozyme fitness (log ratio)” value is at most -4.2. As for GGAUCUUCUCGAUCUAACAAAAAAGACAAAUCUGGCACAAAGCUUGAGAGGAUCUUCGGAUGCAGAGGCGGCAGCCUUCGGUGGCGCGAUAGCGCCGGCGUUCUCAACUAUGACACGCAAAACGCGUGCUCCGUUGAAUGGAGUUUAUCAUG [C35G C51G A97G A98G], the “polymerase ribozyme fitness (log ratio)” value is at most -4.2.

Turning to GGAUCUUCUCGAUCUAACAAAAAAGACAAAUCUUCCACAAAGCUUGAGAGCAUCUUAGGAUGCAGAGGCGGCAGCCUUCGGUGGCGGGAUGGCGCAAACGUUCUCAACUAUGACACGCAAAACGCGUGCUCCAUUGAUUGGAGUUUAUCAUG [G34U C57A C87G A91G C96A G133A A138U], the “polymerase ribozyme fitness (log ratio)” value is at most -4.2.

With GGAUCUUCUCGAUCUAACAAAAAAGACAAAUCUUCCACAAAGCUUGAGAGCAUCUUCAGAAGCAGAGGCGGCAGCCUUCGGUGGCGAGAUAGCGCCAACGGACUCAACUAUGACACGCAAAACGCGUGCUCCUUUGAAUGGAGUUUAUCAUG [G34U G58A U61A C87A U101G U102A G133U], the “polymerase ribozyme fitness (log ratio)” value was at most -4.2. In the case of GGAUCUUCUCGAUCUAACAAAAAAGACAAAUCUGACACAACGCUUGAGAGCAUCUUCGGAUGCAGAGGCGGCAGCCAUCAGUGGCGCGAUAGCGCCAACGUUCUCAACUAUGACACGCAAAACGCGUGCUCCGUUGAAUGGAGUUUAGCAUG [C35A A41C U77A G80A U148G], the “polymerase ribozyme fitness (log ratio)” value is at most -4.2. In the case of GGAUCUUCUCGAUCUAACAAAAAAGACAAAUCUGACACAAAGCUUGAGAGCAACUUCGGAUGCAGAGGCGGCAGCCUUCGGUGGCGCGAUAGCGCCAACGUUCUCAGCUAUGACACGCAAAACGCGUGCUCCCUUGAAUGGAGUUUAUCAUG [C35A U53A A107G G133C], the “polymerase ribozyme fitness (log ratio)” value was at most -4.2. For the variant GGAUCUUCUCGAUCUAACAAAAAAGACAAAUCUGACACAAAGCUUGAGAGCAUCUUCGGAUGCAGAGGCGGCAGCCUUCGGUGGCGGGAUAGCGCCAACGUUCUCAACUAUGACACGUAAAACGCGUGCUCCGUUGAAUGGAGUUUAUCAUG [C35A C87G C118U], the “polymerase ribozyme fitness (log ratio)” value is at most -4.2. In the case of GGAUCUUCUCGAUCUAACAAAAAAGACAAAUCUGACACAAACCUUGAGAGCAUCUUGGGAUGCAGAGGCGGCAGCCUGCGGUGGCGCGAUAGCGCCAACGUUCUCAAGUAUGACACGCAAAACGCGUGAUACGUUGAACGGAGUUUAUCAUG [C35A G42C C57G U78G C108G C129A C131A U139C], the “polymerase ribozyme fitness (log ratio)” value was at most -4.2. With GGAUCUUCUCGAUCUAACAAAAAAGACAAAUCUGACACAAAGCUUGAGAGCAUCUUCGGAUGCAGAGGCGGCAGCCUUCGGUGGUGCGAUAGCGCCAACGUUCGCAAAUAUGAAACGCAAAACGCGUGCUCCGUUGAAUGGAGUUAAUCAUG [C35A C85U U104G C108A C114A U146A], the “polymerase ribozyme fitness (log ratio)” value is at most -4.2.

For GGAUCUUCUCGAUCUAACAAAAAAGACAAAUCUGACACAACGCUUGAGAGCCUCUUCAGAUGCAGAGGCGGCAGCCUUCGGUGGCGCGAUAGCGCUAACGUUCUCAACUAUGACACGCAAAGCGCUUGCUCCGUUGAAUGGAGUUUAUCAUG [C35A A41C A52C G58A C96U A122G G126U], the “polymerase ribozyme fitness (log ratio)” value was at most -4.2. Then GGAUCUUCUCGAUCUAACAAAAAAGACAAAUCUUCCACAAAGCUUGAGAGCAUCAUCGGAUGCAGAGGCGGCAGCCUUCGGUGGCGCGAUGGCUCCAACGUUCUCAACUAUGACACGCAAAACGAGUGCUCCGUUGAAUGGAGUUUAUCAUG [G34U U55A A91G G94U C125A], with at most -4.2; and GGAUCUUCUCGAUCUAACAAAAAAGACAAAUCUGACACAAAGCUUGAGAGCAUCUUCGGAUGCAGAGGCGGCAGCCUUCGGUAGCGCGAUAGCGCCAGCGUUCUCAACUAUGACAGGCAAAACGCGUGCUCUGUGGGAUGGAGUUUAUCAUG [C35A G83A A98G C116G C132U U135G A137G], with at most -4.2.

As for GGAUCUUCUCGAUCUAACAAAAAAGACAAAUCUGGCACAAAGCUUGAGAGCAUCUUCGGAUGCAGAGGCGGCUGCCUUCGGUGGCGCGAUAGCGCCAACGUUCUCAACUAUGACACGCAAAACGCUUGCUCUGUUGAAUGGAGUUUAUCAUG [C35G A73U G126U C132U], the “polymerase ribozyme fitness (log ratio)” value is at most -4.2. Then GGAUCUUCUCGAUCUAACAAAAAAGACAAAUCUGACACUAAGCUUGAGAGCAACUUCGGAUGCAGAGGCGGCAGCCUUCGGUAGCACGAUUGCGCCAACGUUCUCAACUAUGACACGCAAAACGCGUGCUCCGUUGAAUGGAGUUUAUCAUG [C35A A39U U53A G83A G86A A91U], with at most -4.2.
